Among all 390,000 compounds or so, about 930 (0.24%) were called active. Inconclusive means that the source gave no clear call. Such entries were picked first, then a sample of the others. The call rests on the fitted dose curve; in most records, active means well fitted activation curve with a large enough effect; inconclusive means small, poorly fitted or top-dose-only effect; inactive means no such curve, though single readings can be large or run the other way. Where the call is inconclusive, the potency comes from a doubtful curve fit. Numbered stars: 1 amine (or outer) side, 2 acyl side, 3 side chain; on linkers, the order of the positions; unused ones are H or OH. Square brackets hold non-standard residues; d marks the D form. Peptide text beside a SMILES is read from it. X10 = CC[C@H](C)C(OC(=O)[C@@H](C)[C@@H](CC)N[*:1])C(=O)[*:2]; X2 = CC(N[*:1])C(=O)C(C)(C)C(=O)[*:2]; NMeY = CN[C@@H](Cc1ccc(O)cc1)C(=O)O; NMeL = CN[C@@H](CC(C)C)C(=O)O; NMeV = CN[C@H](C(=O)O)C(C)C; NMeA = CN[C@@H](C)C(=O)O
Test: qHTS for Suppressors of FUS Proteinopathy: Primary screen using FUS-linked yeast assay; further: nearly all actives have a fitted effect of over 55% in size;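 on growth rescue (activation): plate controls were DMSO vehicle for no effect and reference control for full effect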
Conditions: S. cerevisiae FUS-expressing, OD600, 24 h; Potency: growth rescue; growth rescue (activation): at 76.6 µM (top of the series)
Method in brief: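 S. cerevisiae expressing FUS from galactose induction served as the toxicity model. Growth after 24hr at 30C, read as absorbance at 600 nm, indicates suppression of toxicity; compounds dosed at several concentrations.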
Potency means the concentration at half of the fitted maximal effect; tags describe the fitted curve by direction and shape.

SMILES | Potency | growth rescue (activation)
COc1cccc2[nH]c3c(N4CCc5ccccc5C4)ncnc3c12 | inactive | –
CN(CC(=O)Nc1cccc(F)c1)C(=O)c1cn(-c2ccccc2)nc1-c1ccc(Cl)cc1 | inconclusive: 25.1 µM [activator, single point] | –
C[C@H](CO)N1C[C@H](C)[C@@H](CN(C)C(=O)Nc2cccc3ccccc23)OCCCC[C@H](C)Oc2ccc(NS(=O)(=O)c3cn(C)cn3)cc2C1=O | inconclusive: 25.1 µM [activator, partial curve, poor fit] | –
CCOC(=O)C1CCCN(CCC(=O)Nc2ccc(OC)cc2OC)C1 (stereo unspecified) | inactive | –
CCOC(=O)[C@H]1[C@H]2COc3ccc(Br)cc3[C@@H]2N2C(=O)CN(Cc3ccc(C)cc3)C(=O)[C@@]12C | inconclusive: 31.6 µM [activator, single point] | –
CN(C)c1ccc(NC(=O)Nc2nc(C(N)C3CCCCC3)cs2)cc1 (stereo unspecified) | inconclusive: 28.2 µM [activator, single point] | –
COc1ccc(CCNC(=O)c2ccc(CS(=O)(=O)c3ccc(C)cc3)o2)cc1OC | inactive | –
O=C1COc2ccc(C(=O)COC(=O)Cc3ccsc3)cc2N1 | inconclusive: 50.1 µM [activator, single point] | –
O=C(c1cc(-c2ccccc2)nc2ccccc12)N1CCN(c2ccccc2O)CC1 | inconclusive: 28.2 µM [activator, single point] | –
COc1ccccc1CNC(=O)c1c2c(nc3ccccc13)C(=O)N(C1CCCCC1)C2 | inactive | –
COc1cccc(NC(=O)c2cc(CN3CCOCC3)on2)c1 | inactive | –
COc1ccc(/C=C2\CCC/C(=C\c3ccc(OC)c(OC)c3OC)C2=O)c(OC)c1OC | inactive | –
COc1ccc(C(=O)/C=C/c2ccc(O)cc2)c(O)c1CC=C(C)C | inconclusive: 31.6 µM [activator, single point] | –
O=C1C2ON(c3ccccc3)C(c3ccncc3)C2C(=O)N1c1ccc(Br)cc1 (stereo unspecified) | inactive | –
Cc1cc(Cl)ccc1OCCCC(=O)N1CCCc2ccccc21 | inconclusive: 25.1 µM [activator, partial curve] | –
Cc1cccc(C)c1-n1c(C)cc(/C=N/NC(N)=S)c1C | inconclusive: 28.2 µM [activator, partial curve, poor fit] | –
CCCCCN(C(=O)CCC(=O)OCc1cc(C(C)=O)ccc1OC)c1c(N)n(CCCC)c(=O)[nH]c1=O | inconclusive: 28.2 µM [activator, single point] | –
COc1ccc(-c2csc(C)n2)cc1Br | inactive | –
COc1ccc(-c2noc(CSCC(=O)Nc3ccc(C)cc3Br)n2)cc1OC | inactive | –
CC[C@H](C)C1OC(=O)[C@@H](C)[C@@H](CC)NC(=O)[C@H](C)N(C)C(=O)C(C)(C)C(=O)C(C)NC(=O)[C@H](Cc2ccc(OC)cc2)N(C)C(=O)[C@H](C(C)C)N(C)C(=O)CNC(=O)[C@H](CC(C)C)N(C)C(=O)CNC1=O (stereo partly specified) (cyclo(G[NMeL]G[NMeV][NMeY](Me)[X2][NMeA][X10])) | inconclusive: 15.8 µM [activator, partial curve, poor fit] | –
Nc1cc(-c2ccccc2)nn1Cc1ccccc1 | inconclusive: 50.1 µM [activator, single point] | –

SMILES | Potency | growth rescue (activation)
CC(=O)NCc1ccc(S(=O)(=O)N2CCCN(C)CC2)cc1 | inactive | –
O=C(CSc1nc2ccccc2c(=O)n1CC1CCCO1)Nc1ccccc1Cl (stereo unspecified) | inconclusive: 28.2 µM [activator, single point] | –
Cc1nc2nc(CNC(=O)OC(C)(C)C)nn2c(C)c1CCC(=O)NCc1ccccc1Cl | inactive | –
Cc1cccc(N2CCN(C(=O)CS(=O)(=O)Cc3nc(-c4ccccc4F)oc3C)CC2C)c1 (stereo unspecified) | active: 31.6 µM | –
Cc1c(CCC(=O)N[C@@H](CC(C)C)C(=O)O)c(=O)oc2c(C)c3oc4c(c3cc12)CCCC4 | inconclusive: 15.8 µM [activator, partial curve] | –
CCCC(C1=C(O)CC(C)(C)CC1=O)C1C(=O)CC(C)(C)CC1=O (stereo unspecified) | inconclusive: 12.6 µM [activator, partial curve, poor fit] | –
CC(C)Sc1nc(N)c2c3c(sc2n1)CN(C)CC3 | inactive | –
CC1=C(C(=O)Nc2cc(C)cc(C)c2)C2(CCCCC2)OC1=O | inactive | –
CC(=O)N1Cc2cc(C(=O)NCc3cccc(F)c3)nc(-c3cccc(C4=CCCC4)c3)c2[C@H]1CCO | inconclusive: 28.2 µM [activator, single point] | –
CCC(=O)N1c2ccc(S(=O)(=O)CCC(=O)NCc3ccc(OC)cc3)cc2CC1C (stereo unspecified) | inactive | –
CCN(CC)S(=O)(=O)c1cc(C(=O)Nc2nncs2)c(Cl)cc1Cl | – | inconclusive: 49.7% [activator]
CCOC(=O)C1CCN(C(=O)c2ccc(C)c(NC(=O)c3nsc4ccccc34)c2)CC1 | inconclusive: 25.1 µM [activator, partial curve] | –
CCC(=O)N1CCc2cc(Br)cc(S(=O)(=O)NCCc3ccc(C)cc3)c21 | inactive | –
O=C(NCc1nc2ccccc2[nH]1)C1=C[C@H](c2ccc(Br)cc2)C[C@H](OCc2ccc(CO)cc2)O1 | inconclusive: 35.5 µM [activator, single point] | –
Cc1nc([N+](=O)[O-])c(Br)n1CC(=O)c1ccc(Br)cc1 | inactive | –
Brc1ccccc1-c1nnc(CSc2nnc3sc4ccccc4n23)o1 | inconclusive: 56.2 µM [activator, partial curve, poor fit] | –
CCOC(=O)c1ccc(NC(=O)Nc2cc3c(cc2N2CCCCC2)n(CC)c(=O)n3CC)cc1 | inconclusive: 35.5 µM [activator, single point] | –
C=CCN1C=C2C(=O)C(C)(OC(=O)CCC(=O)OC)C(=O)C(Br)=C2C=C1c1ccc(OC)cc1 (stereo unspecified) | inconclusive: 22.4 µM [activator, single point] | –
CCc1ccc(Nc2nc(-c3cc4cccc(OC)c4oc3=O)c(CC)s2)cc1 | inconclusive: 22.4 µM [activator, single point] | –
C=CCc1c(C)nc(SC)nc1Nc1ccc(C(C)=O)cc1 | inconclusive: 5.01 µM [activator, partial curve] | –
